Data published in paper PMC4336329 (PLoS ONE, 2015).
The campaign covered roughly 310,000 compounds. About 2,200 (0.71%) showed an effect of 50% or more. The effect is printed as a negative number. The list shows a part of the results.

Target: human ether-à-go-go-related gene (hERG) potassium channel (human, UniProt Q12809)
Assay: primary screen, population patch clamp on CHO cells stably expressing hERG

Chain of human ether-à-go-go-related gene (hERG) potassium channel (Q12809 whole entry, looked up): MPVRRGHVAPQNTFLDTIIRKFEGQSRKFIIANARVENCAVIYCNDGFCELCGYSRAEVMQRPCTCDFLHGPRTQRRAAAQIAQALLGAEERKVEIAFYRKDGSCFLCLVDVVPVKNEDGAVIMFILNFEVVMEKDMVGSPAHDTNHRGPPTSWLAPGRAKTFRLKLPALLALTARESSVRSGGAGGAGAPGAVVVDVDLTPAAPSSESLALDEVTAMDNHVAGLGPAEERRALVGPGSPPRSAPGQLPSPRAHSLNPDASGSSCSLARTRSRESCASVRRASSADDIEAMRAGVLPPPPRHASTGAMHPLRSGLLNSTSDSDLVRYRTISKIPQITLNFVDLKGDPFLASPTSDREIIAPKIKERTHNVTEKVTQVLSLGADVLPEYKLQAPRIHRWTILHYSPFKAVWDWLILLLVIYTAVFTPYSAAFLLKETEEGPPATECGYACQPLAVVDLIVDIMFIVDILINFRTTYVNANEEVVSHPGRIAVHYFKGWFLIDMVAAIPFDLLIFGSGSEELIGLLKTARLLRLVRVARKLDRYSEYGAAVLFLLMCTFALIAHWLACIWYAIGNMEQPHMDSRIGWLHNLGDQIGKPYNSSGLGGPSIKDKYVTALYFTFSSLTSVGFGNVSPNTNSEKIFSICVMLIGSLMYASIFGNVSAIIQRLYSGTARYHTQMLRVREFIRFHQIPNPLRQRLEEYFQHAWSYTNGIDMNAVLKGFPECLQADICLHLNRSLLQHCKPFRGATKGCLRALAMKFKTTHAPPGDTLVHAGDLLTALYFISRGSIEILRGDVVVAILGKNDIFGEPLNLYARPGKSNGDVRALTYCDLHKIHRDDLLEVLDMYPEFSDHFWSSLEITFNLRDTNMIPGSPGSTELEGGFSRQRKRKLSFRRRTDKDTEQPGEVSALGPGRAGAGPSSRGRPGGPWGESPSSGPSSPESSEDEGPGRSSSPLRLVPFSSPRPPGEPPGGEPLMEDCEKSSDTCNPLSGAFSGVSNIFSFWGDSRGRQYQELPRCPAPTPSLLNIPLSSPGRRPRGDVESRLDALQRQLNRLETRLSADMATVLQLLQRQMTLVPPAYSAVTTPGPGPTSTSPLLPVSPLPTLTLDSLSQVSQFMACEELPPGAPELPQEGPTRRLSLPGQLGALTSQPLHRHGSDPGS

Point of comparison: `COc1ccc2cc(/C=C/C(=O)c3ccco3)c(Cl)nc2c1`, “hERG current change (%, negative = inhibition) at 1uM” value 16.7%. Against it:
- CN(C(=O)c1ccc2c(=O)n3c(nc2c1)CCCCC3)c1ccccc1F — lower, -17.7%
- C=CCNc1oc(-c2ccc(OC)cc2)nc1C#N — lower, 8.7%
- COc1ccc(S(=O)(=O)N2CCCCC2)cc1NC(=O)c1ccc2c(c1)OCO2 — lower, 12.4%
- COc1ccc(C(=O)N2CCN(c3ccccn3)CC2)cc1[N+](=O)[O-] — lower, 5.08%
- COP(=O)(/C=C(\Cl)c1ccccc1)/C=C(\Cl)c1ccccc1 — lower, 10%
- CC(=O)Nc1ccc(S(=O)(=O)Nc2cccc(-c3cn4cccnc4n3)c2)cc1 — lower, 14.4%
- COC(=O)Nc1ccc(S(=O)(=O)N2CCCC(C(=O)O)C2)cc1 (stereo not drawn) — higher, 19.9%
- CCCn1c(SCC(=O)c2cc(C)ccc2C)n[nH]c1=O — lower, 6.97%
- CCC(=O)Nc1cccc(C2=NOC3(C2)C[C@@H](C(N)=O)N(C(=O)C(c2ccccc2)c2ccccc2)C3)c1 (stereo partly drawn) — lower, 10.7%
- CC(C)OCCCNC(=O)CCN1C(=O)COc2ccccc21 — lower, 13.4%
- O=C(N/N=C/c1ccc(F)cc1)c1cccc(NC(=O)c2ccc(F)cc2)c1 — lower, 0.21%
- O=C(Nc1cccnc1)Nc1cccc(F)c1 — lower, 16.1%
- O=c1[nH]c(SCc2nc3ccccc3c(=O)n2-c2ccccc2C(F)(F)F)nc2ccccc12 — lower, 7.05%
- CC(=O)c1c(C)[nH]c(C(=O)OCC(=O)Nc2c(C)cccc2C)c1C — lower, 15.9%
- CC(=O)Nc1ccc(S(=O)(=O)N(Cc2ccco2)CC2CCCO2)cc1 (stereo not drawn) — lower, 14.3%
- COC(=O)c1[nH]c2cc(OC)c(OC)cc2c1/C=N/Nc1ccccc1 — higher, 29.7%
- CCC(C)N1CCN(S(=O)(=O)c2ccc3ccccc3c2)CC1.O=C(O)C(=O)O (stereo not drawn) — lower, 13.4%
- COc1ccc(Oc2nc(-c3ccncc3)nc3ccccc23)cc1 — lower, 15.8%
- O=C(N/N=C/c1cn(-c2ccccc2)nc1-c1cccnc1)c1ccc(F)cc1 — lower, -17.1%
- COc1ccc(-n2c(Cc3cccn3C)nnc2SCC(=O)NCCc2ccccc2)cc1 — lower, 12.7%
- COc1ccc(C2CC(C(F)(F)F)n3nc(C(=O)O)cc3N2)cc1OC (stereo not drawn) — lower, -9.65%
- CCOC(=O)c1cn2ccc(C)cc2n1 — lower, -1.3%
- Cn1nc(-c2ccc(OCC(N)=O)cc2)c2ccccc2c1=O — lower, 3.45%
- CC1CCN(C2=C(NS(=O)(=O)c3ccccc3)C(=O)c3ccccc3C2=O)CC1 — lower, 0.812%
- O=C(CSc1ccc(-c2ccc(F)cc2)nn1)NC1CCCCC1 — lower, 5.48%
- O=C1CSC(c2ccccn2)N1Cc1cn2ccccc2n1 (stereo not drawn) — lower, 5.02%
- Cc1nnc(SCCOc2ccccc2)s1 — lower, 13.3%
- CCCc1ccc(OCc2nc(-c3ccc(NC(=O)c4cccs4)cc3)no2)cc1 — lower, 6.39%
- Cc1ccc(-c2onc3ccc(C=O)cc23)cc1 — lower, 6.48%
- O=C(O)c1cc(NS(=O)(=O)c2ccc(N3CCCCC3)c([N+](=O)[O-])c2)cc(C(=O)O)c1 — lower, 5.04%
- O=C(O)CCC(=O)Nc1nc2nccc(-c3ccccc3)n2n1 — lower, 1.61%
- O=C(c1cc(C(=O)N2CCN(c3ccc(F)cc3)CC2)cc([N+](=O)[O-])c1)N1CCN(c2ccc(F)cc2)CC1 — lower, 5.18%
- CCN(CC)C(=O)C1CCCN(C(=O)CCn2nnnc2CN2CCOCC2)C1 (stereo not drawn) — higher, 17.5%
- CCC(C)n1ncn(-c2ccc(N3CCN(c4ccc(OCC5COC(Cn6cncn6)(c6ccc(Cl)cc6Cl)O5)cc4)CC3)cc2)c1=O (stereo not drawn) — higher, 17.6%
- Cc1ccc(NC(=O)CC2NCCNC2=O)cc1Cl (stereo not drawn) — lower, 16.1%
- COc1ccc(NC(=O)c2cc(S(=O)(=O)N3CCCCC3)c[nH]2)cc1Cl — lower, 10.8%
- CC(NC(=O)c1ccccc1)c1nnc(SCC(=O)Nc2nnc(C3CC3)s2)n1C (stereo not drawn) — lower, 0.0981%
- Cc1ccc(-c2csc(/C(C#N)=C/Nc3ccccc3SC(F)(F)F)n2)cc1 — lower, 6.72%
- Cc1ccc(F)cc1CNC(=O)C1CCC(=O)N(CCCN2CCCC2=O)C1 (stereo not drawn) — lower, 15.4%
- CCn1c(SCC(=O)Nc2ccc(C)cc2)nnc1-c1cnccn1 — lower, 8.53%
- Cc1ccc(N2CC(C(=O)Nc3ccccn3)CC2=O)cc1 (stereo not drawn) — lower, -0.954%
- CCOC(=O)N1CCN(C(=S)NC(=O)c2nn(C)cc2Br)CC1 — higher, 24.1%
- O=C(Nc1ccc(F)cc1)c1cccc2c1C(=O)N(CC1CCCO1)C2 (stereo not drawn) — lower, 0.85%
- Cc1ccc(/C=N/NC(=O)COc2ccccc2-c2ccccc2)cc1 — lower, 8.45%
- CCOCCOC(=O)C1=C(C)NC2=C(C(=O)CC(c3cccs3)C2)C1c1ccsc1 (stereo not drawn) — lower, 12.1%
- Cc1cc(O)c2/c(=N\N)c(-c3csc(C)n3)coc2c1 — lower, 6.04%
- Cn1cccc1-c1nc2ccc(NC(=O)c3cccs3)cc2[nH]1 — lower, -16.9%
- CCOC(=O)C1CCN(S(=O)(=O)c2csc(C(N)=O)c2)CC1 — lower, 2.13%
- CN(Cc1ccccc1F)C(=O)c1sccc1-c1ccccc1 — lower, 9.65%
- CCCN(CC1CC1)C(=S)Nc1ccccc1F — lower, 5.68%
- CCn1cnc2c1c(=O)n(Cc1ccc(C(=O)OC)cc1)c(=O)n2Cc1ccccc1 — higher, 19.6%
- COc1ccccc1NS(=O)(=O)c1ccc2oc(N)nc2c1 — lower, 15.9%
- CN(C)C(=O)c1cc(C(=O)c2ccccc2Cl)c[nH]1 — higher, 19.2%
- CN1CCN(C(=O)CCCOc2ccc(Cl)cc2Cl)CC1 — lower, -34%
- Cc1ccc(NC(=O)c2nc(S(=O)(=O)Cc3ccccc3)ncc2Cl)cc1 — higher, 21.4%
- CCN(C(=O)COC(=O)c1cccn1C)C1CCS(=O)(=O)C1 (stereo not drawn) — lower, 11.5%
- CCCCn1c(NS(=O)(=O)c2ccc(C)cc2)c(C(=O)OCC)c2nc3ccccc3nc21 — lower, 1.73%
- Cc1cc(C(=O)N(C)C)sc1-c1ccccc1 — lower, 9.36%
- COc1ccccc1Cc1nnc(NC(=O)C2CCN(C(=O)c3ccco3)CC2)s1 — lower, 8.89%
- COc1cc(C2=NOC(C(=O)NCc3ccccn3)C2)cc(OC)c1OC (stereo not drawn) — lower, 14.9%
- O=c1ccnc(SCn2nnc3ccccc3c2=O)[nH]1 — lower, 8.43%
- Cn1ccsc1=NC(=O)c1ccc(S(=O)(=O)C(F)F)cc1 — lower, 14.4%
- CCCCNc1nc2ccccc2nc1NS(=O)(=O)c1ccc(F)cc1 — lower, 6.65%
- COc1cc(Br)cc(/C=N/NC(=O)Cc2ccc(C(F)(F)F)cc2[N+](=O)[O-])c1O — lower, 7.29%
- COc1ccccc1NCN1C(=O)CCC1=O — lower, 2.48%
- O=C(Cn1cc2c(n1)CCCC2)NCCCN1CCN(c2ccccc2F)CC1 — lower, -5.66%
- CCc1ccc(S(=O)(=O)Nc2ccncc2)cc1 — lower, 7.89%
- CCCc1cc(C(N)=O)c(NC(=O)c2ccco2)s1 — lower, 16.2%
- NC(=S)NC1CC2C=CC1C2 (stereo not drawn) — lower, 12.7%
- COc1ccccc1C(O)(C(=O)NN(C(=O)c1ccccc1)c1ccccc1C)c1cccs1 (stereo not drawn) — lower, -8.26%
- CN1C(=O)[C@@H]2[C@@H]3C[C@@H]([C@H]4ON=C(c5ccc(Cl)cc5)[C@@H]34)[C@@H]2C1=O — lower, -2.57%
- NS(=O)(=O)c1cccc(NC(=O)COC(=O)c2ccccc2C(=O)c2ccccc2)c1 — lower, -2.46%
- CC(C)(C)c1ccc(CN2C(=O)c3ccccc3S2(=O)=O)cc1 — lower, 15.7%
- O=C(NCC1CCCO1)c1ccccc1OCc1ccc(Cl)cc1 (stereo not drawn) — lower, 11.5%
- Cc1c(NC(=O)C(C)OC(=O)c2cc3c4ccccc4n(C)c3s2)c(=O)n(-c2ccccc2)n1C (stereo not drawn) — lower, -2.85%
- O=C(NC1CCC(O)CC1)c1ccc2c(c1)S(=O)(=O)N=C1CCCCCN12 (stereo not drawn) — lower, 12.5%
- CCOc1ccc(-n2c(SCC(=O)OC)nc3sc4c(c3c2=O)CCN(C)C4)cc1 — lower, 13.1%
- CC(C)NC(=O)c1ccccc1N(Cc1ccccc1)S(C)(=O)=O — lower, 15.3%
- Cn1nc(C(F)(F)F)cc1-c1ccc(/C=C(\C#N)C(=O)c2ccccc2)s1 — lower, 14.3%
- Cc1sc2ncn(CC(=O)NC3CCCCC3)c(=O)c2c1C — lower, 5.06%
- O=C(O)CC1=C(O)C(=O)N(c2ccccc2)C1c1ccc(Cl)cc1 (stereo not drawn) — higher, 17.6%
- CN(Cc1ccccc1)CC(O)COc1ccc(CNCCCOc2cccnc2)cc1 (stereo not drawn) — lower, 11.4%
- Cc1ccccc1CNC1CCCCC1.Cl — lower, 2.15%
- Cc1ccc(S(=O)(=O)Nc2ccc3nc(C)sc3c2)c(C)c1 — lower, 9.4%
- O=C(Cn1ccc2cc(S(=O)(=O)N3CCCC3)ccc21)NCc1ccccc1 — higher, 19.6%
- CN1CCN(c2nc(N)c(Br)c(Cl)n2)CC1 — lower, 11.2%
